# Among all 340,000 compounds or so, about 12,000 (3.5%) were called active. The shares of active, inactive and inconclusive entries below differ from those in the screen. Calls come from the whole dose curve; as a rule, active = well fitted inhibition curve with a large enough effect; inconclusive = small, poorly fitted or top-dose-only effect, or another doubt; inactive = no such curve, though single readings can be large or run the other way. Potencies of inconclusive entries are left out as doubtful fits.
# Assay: qHTS Assay for Inhibitors of Hepatitis C Virus (HCV)
# Settings: Huh7.5.1 HCVcc-Cre (HCVcc is cell-culture hepatitis C virus) infection, luciferase reporter, 44 h; activity change, negative = inhibition: at 41.8 µM (top of the series)
# How it was run: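 1,000 cells/well; 4 h culture; + compound; + HCVcc-Cre (~0.5 moi); 44 h; luciferase substrate, RT 15 min; read 15 sec.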
# % is set by controls: 0 for no effect and ±100 for the full control effect; potency is the fitted concentration of half-maximal effect; tags give direction and shape of the fitted curve.
Compound,Potency,"activity change, negative = inhibition"
Cc1nc2oc(C(=O)c3ccccc3)c(N)c2c2c1COC(C)(C)C2,"inconclusive [inhibitor, single point]",
CN(C)CC1CSCCC1(O)c1cccc(Cl)c1 (stereo not given),"inconclusive [inhibitor, partial curve]",
COc1ccc(CNC(=O)CNC(=O)c2ccc(Br)o2)cc1OC,,inactive: 8.42%
C#CCN(Cc1ccccc1)S(=O)(=O)C=C,,inactive: 9.99%
COc1ccccc1N1CCN(/N=C/c2ccc([N+](=O)[O-])cc2)CC1,active: 11.2 µM,
CCOc1ccccc1N(CC(=O)N1CCC(C(N)=O)CC1)S(=O)(=O)c1ccc(SC)cc1,,inactive: 2.78%
C1=Nc2c(NCc3ccccc3)ncnc2Oc2ccccc21,"inconclusive [inhibitor, single point]",
O=C(Cc1ccc(Br)cc1)NC1CCN(Cc2ccccc2)CC1,active: 10 µM,
CCCc1nc(SCC(=O)N2CCCc3ccccc32)c2c(=O)n(C)c(=O)n(C)c2n1,active: 10 µM,
O=C(CN1CCN(S(=O)(=O)c2ccccc2)CC1)Nc1ccc(Cl)c(Cl)c1,"inconclusive [inhibitor, single point]",
Cc1cccc(N=c2oc3cc(O)ccc3cc2C(N)=O)c1,"inconclusive [inhibitor, single point]",
COC(=O)CNC(=O)CSc1nc2sc(-c3ccccc3)cc2c(=O)n1-c1ccccc1,,inactive: -2.75%
COc1ccc(N(C)C(=O)c2cc3c(s2)-c2ccc(Cl)cc2S(=O)(=O)C3)c(OC)c1,"inconclusive [inhibitor, partial curve]",
COc1ccc(CSc2nncn2C)cc1[N+](=O)[O-],,inactive: 9.99%
O=C(c1cccc(S(=O)(=O)N2CCCC2)c1)N1CCCc2ccccc21,,inactive: -4.78%
COc1ccccc1C1C(C(C)=O)=C(C)N=c2s/c(=C\c3cc(OC)c(OC)c(OC)c3)c(=O)n21 (stereo not given),"inconclusive [inhibitor, partial curve, poor fit]",
O=C(Nc1ccc(F)c(F)c1)c1ccc(F)c(S(=O)(=O)N2CCC3(CC2)OCCO3)c1,active: 12.6 µM,
CC(C)(C)CC(=O)Nc1nnc(SCC(=O)NC2CCCCC2)s1,,inactive: 0.292%
CC(C)(C)NC(=O)C(c1ccncc1)N(C(=O)Cn1nnc(-c2ccc(F)cc2)n1)c1ccccc1 (stereo not given),,inactive: 0.627%
COC(=O)CN1C(c2ccc(Cl)cc2)=Nc2ccc(Cl)cc2C1c1ccccc1 (stereo not given),"inconclusive [inhibitor, partial curve]",
CC(CCc1ccccc1)NC(=O)c1ccc(C(=O)NC(C)CCc2ccccc2)cc1 (stereo not given),"inconclusive [inhibitor, partial curve]",
Cc1cc(C)cc(OCc2ccc(C(=O)O)o2)c1,,inactive: -6.93%
O=C(NCCOc1ccc(Cl)cc1)c1cccc(S(=O)(=O)N2CCCC2)c1,active: 15.8 µM,
CN(C)c1ccc(S(=O)(=O)N2CCCCC2)cc1NC(=O)CCNC(=O)c1ccc(Cl)cc1,,inactive: -7.64%
CN(Cc1ccccc1)C(=O)COC(=O)/C=C/c1ccc2c(c1)OCO2,,inactive: -6.21%

Compound,Potency,"activity change, negative = inhibition"
COCCNC(=O)c1cccc(S(=O)(=O)N2CC3(C)CC2CC(C)(C)C3)c1 (stereo not given),,inactive: 22.5%
COc1ccc(/C=N/NS(=O)(=O)c2ccccc2)cc1OC,"inconclusive [inhibitor, partial curve]",
CC(C)(C)c1cc(NCCCn2ccnc2)n2ncc(-c3ccc(Cl)cc3)c2n1,active: 25.1 µM,
Cc1c(N)cccc1-c1nc2ccccc2[nH]1,,inactive: 11.6%
Nc1nc(SCC(=O)NCC2CCCO2)[nH]c(=O)c1NC(=O)c1ccc(F)c(F)c1 (stereo not given),,inactive: 6.97%
Cc1cc(C)c2c(c1)/C(=N/NS(=O)(=O)c1ccccc1)CCC2,"inconclusive [inhibitor, partial curve]",
CCC(=O)n1nc(-c2ccc(Cl)cc2)nc1N,,inactive: 6.18%
CCN(CC)CCNC(=O)c1ccc(Cl)c(S(=O)(=O)Nc2ccc(Cl)cc2)c1,"inconclusive [inhibitor, single point]",
O=C(Nc1nc2ccccc2n1Cc1ccccc1)c1ccc(COc2ccccc2[N+](=O)[O-])o1,"inconclusive [inhibitor, partial curve]",
CCOc1ccc(NC(=S)N2CCCC2)cc1,,inactive: 5.85%
O=C(c1ccc(Cl)cc1)C1CCN(C(=S)Nc2ccccc2)CC1,"inconclusive [inhibitor, single point]",
CSc1ncc2[nH]c(C(O)c3ccccc3)nc2n1 (stereo not given),"inconclusive [inhibitor, single point]",
CCOC(=O)[C@H]1[C@H]2COc3cc(OC)ccc3[C@@H]2N2C(=O)c3cc(F)ccc3NC(=O)[C@@]12C,,inactive: 1.14%
O=C(O)Cc1ccc(NS(=O)(=O)c2ccc3ccccc3c2)cc1,,inactive: 7.17%
O=C(/C=C/c1ccccc1)Nn1cnc2ccccc2c1=O,,inactive: -6.43%
COc1ccccc1-n1cnc2cc(NC(=O)c3ccco3)ccc21,"inconclusive [inhibitor, partial curve]",
COc1ccc(C2Nc3ccccc3C(=O)N2Cc2ccccc2)cc1OC (stereo not given),,inactive: 0.431%
Oc1ccc2c(ccc3[nH]cnc32)c1,,inactive: -9.79%
Cc1ccccc1-c1cc(C(=O)Nc2sc(C(=O)OC(C)C)c(C)c2C#N)c2ccccc2n1,active: 12.6 µM,
CCCCCCc1c(O)c2ccccc2[nH]c1=O,"inconclusive [inhibitor, partial curve]",
CC[C@]12c3[nH]c4ccc(Cl)cc4c3CCN1C(=O)[C@@H](CC(=O)NCCc1ccccn1)C[C@@H]2C(=O)N1CCN(C(=O)c2ccco2)CC1,"inconclusive [inhibitor, full curve]",
COc1ccc(N2CCN(Cc3nc4sc(C)c(C)c4c(=O)[nH]3)CC2)cc1,,inactive: 10.1%
O=[N+]([O-])c1ccc(N2CCN(S(=O)(=O)c3ccccc3)CC2)c2cccnc12,,inactive: -0.509%
Cc1cccc(N2CCN(C(=O)C3CCN(S(=O)(=O)c4cccnc4)CC3)CC2)c1C,"inconclusive [inhibitor, partial curve]",
COc1cc(-c2noc(CCCC(=O)NCc3ccco3)n2)cc(OC)c1OC,"inconclusive [inhibitor, single point]",

# — PubChem BioAssay AID651820 (National Center for Advancing Translational Sciences (NCATS), 2012)
